# From PubChem BioAssay AID651820 (National Center for Advancing Translational Sciences (NCATS), 2012)
# Values joined by “and” are separate entries in the source; they are usually repeats but may differ in a detail not shown here. Identical values can stand only once. The whole screen tested about 340,000 compounds, of which about 12,000 (3.5%) were called active. Inconclusive results, whose numbers are uncertain, are shown with a selection of clear calls. The call rests on the fitted dose curve; in most records, active means well fitted inhibition curve with a large enough effect; inconclusive means small, poorly fitted or top-dose-only effect, or another doubt; inactive means no such curve, though single readings can be large or run the other way. A potency beside an inconclusive call is a rough fit, not a confirmed value.
# Assay: qHTS Assay for Inhibitors of Hepatitis C Virus (HCV)
# Details: Huh7.5.1 HCVcc-Cre (HCVcc is cell-culture hepatitis C virus) infection, luciferase reporter, 44 h; activity change, negative = inhibition: at 41.8 µM (top of the series) unless noted
# In short: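 Reporter virus HCVcc-Cre (~0.5 moi) infects cells exposed to compound; seeding density 1,000 cells/well with 4 h settling beforehand. Luminescence, 15 sec read, taken 44 h post-infection following a 15 min RT substrate incubation.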
# On the % scale 0 is the no-effect control and ±100 the full control effect; potency means the concentration at half of the fitted maximal effect; tags describe the fitted curve by direction and shape.
Structure (SMILES),Potency,"activity change, negative = inhibition"
COc1ccc(S(=O)(=O)Cc2ccc(C(=O)N3CCN(c4ccc(Cl)cc4)CC3)o2)cc1,"inconclusive: 31.6 µM [inhibitor, single point]",
Cc1cccc(NC(=O)C2CCN(S(=O)(=O)c3ccc(Cl)cc3)CC2)n1,"inconclusive: 31.6 µM [inhibitor, single point]",
CC1=NN(c2ccccc2)C(=O)/C1=C/c1cc(C)n(C2CC2)c1C,,inactive: -7.2%
COC(=O)c1cc(NC(=O)C2(S(=O)(=O)c3ccc(C)cc3)CC2)cc(C(=O)OC)c1,,inactive: 4.04%
CCOC(=O)N1CC=C2C(C#N)=C(N)C(C#N)(C#N)[C@H](c3ccc(OC(C)C)c(OCC)c3)[C@H]2C1,"inconclusive: 8.91 µM [inhibitor, partial curve]",
Cc1cc(O)c(C(C)C)cc1NC(=O)c1ccc(Cl)cc1,"inconclusive: 31.6 µM [inhibitor, single point]",
Cc1cc(/C=C2\SC(N)=NC2=O)c(C)n1-c1ccccc1,,inactive: -6.09%
COc1cccc(NC(=O)c2cc(CN3C(=O)c4ccccc4C3=O)ccc2OC)c1,"inconclusive: 7.08 µM [inhibitor, full curve]",
CCN1CCN(c2ccc(S(=O)(=O)N3CCOCC3)cc2NC(=O)c2cccc([N+](=O)[O-])c2)CC1,,inconclusive: -44.8% [inhibitor]
Cc1cc2cc(CN(Cc3cccs3)Cc3nnnn3CC3CCCO3)c(=O)[nH]c2cc1C (centres undefined),"inconclusive: 6.31 µM [inhibitor, full curve, poor fit] and inconclusive: 31.6 µM [inhibitor, single point]",
Brc1ccccc1OCCOc1cccc2cccnc12,,inactive: -20.5%
Cc1cc(Nc2ccccc2)nn1C(=O)c1ccc(Cl)cc1,"inconclusive: 31.6 µM [inhibitor, single point]",
O=C(/C=C/c1ccccc1Cl)NCc1ccccc1,"inconclusive: 11.2 µM [inhibitor, single point]",
Clc1cccc(CN2CCN(Cc3nc(CCc4ccccc4)no3)CC2)c1,,inactive: -1.99%
Nn1c(SCc2ccccc2)nc2ccccc21,,inactive: -14.7%
O=C(Nc1ccc(S(=O)(=O)NCc2ccco2)cc1)c1ccc(F)cc1,"inconclusive: 10 µM [inhibitor, partial curve]",
COc1ccc(-c2cc(C(=O)N3CCN(C(c4ccccc4)c4ccccc4)CC3)no2)cc1OC,"inconclusive: 31.6 µM [inhibitor, single point]",
O=C(Nc1cccc(C(=O)Nc2ccc(Cl)cn2)c1)c1ccccc1,active: 12.6 µM,
CCCC1=[N+](CC(=O)c2ccccc2)CCn2cccc21,"inconclusive: 31.6 µM [inhibitor, single point]",
COc1ccccc1CN(Cc1ccco1)S(=O)(=O)c1ccc(-n2cnnn2)c(OC)c1,"inconclusive: 6.31 µM [inhibitor, full curve, poor fit] and inconclusive: 28.2 µM [inhibitor, single point]",
O=C(Nc1ccccc1F)c1ccc(Cn2cc(Br)cn2)cc1,"inconclusive: 31.6 µM [inhibitor, single point]",
COc1ccc(C(=O)NCC(=O)N/N=C/c2ccc([N+](=O)[O-])s2)cc1OC,"inconclusive: 22.4 µM [inhibitor, single point]",
O=C(CSCc1ccc(Cl)cc1)Nc1ccc(-c2nnc(-c3ccccc3)o2)cc1,active: 7.08 µM,

Structure (SMILES),Potency,"activity change, negative = inhibition"
CCn1cc([N+](=O)[O-])c(C(=O)N2N=C(c3ccc(Cl)c(Cl)c3)CC2c2ccccc2O)n1 (centres undefined),"inconclusive: 31.6 µM [inhibitor, single point]",
COc1cc(CC(=O)OCC(=O)c2ccc3c(c2)OCCO3)cc(OC)c1OC,"inconclusive: 0.501 µM [inhibitor, full curve, poor fit]",
CC(NS(=O)(=O)c1ccc2c(c1)oc(=O)n2C)c1ccccc1 (centres undefined),,inactive: 0.689%
O=C(NCc1cccs1)c1cc(-c2cccc(Cl)c2)on1,,inactive: 18.1%
CC(C)CN1CCC(=O)N([C@H](CSc2ccccc2)Cc2ccccc2)CC1,"inconclusive: 3.16 µM [inhibitor, partial curve, poor fit]",
Oc1cc2c(cc1CN1CCc3ccccc3C1)OCO2,,inactive: 10.4%
O=C(c1ccccc1)c1cc([N+](=O)[O-])ccc1N1CCCC1,"inconclusive: 31.6 µM [inhibitor, single point]",
CCC(CC)NC(=O)Nc1ccccc1C(F)(F)F,,inactive: 2.32%
Cc1csc2nc(CNS(=O)(=O)c3ccc(-c4ccccc4)cc3)cn12,"inconclusive: 11.2 µM [inhibitor, single point]",
CC(Oc1ccc(Br)cc1)C(=O)NCC(c1ccco1)N1CCCCC1 (centres undefined),"inconclusive: 10 µM [inhibitor, partial curve]",
c1ccc(CCc2ccccc2-c2nc(-c3ccccn3)no2)cc1,"inconclusive: 5.01 µM [inhibitor, single point]",
OC(CNCC1CCCO1)Cn1c2ccc(Br)cc2c2cc(Br)ccc21 (centres undefined),active: 35.5 µM,
CCOc1ccc(Cl)cc1CNCCNCCO,"inconclusive: 22.4 µM [inhibitor, single point]",
CCOc1cc(N2CCOCC2)c(OCC)cc1NC(=O)c1nc2nc(C)cc(C)n2n1,"inconclusive: 5.62 µM [inhibitor, single point]",
CCCCSCCCNC(=O)c1ccc(CS(=O)(=O)c2ccc(OC)cc2)o1,"inconclusive: 31.6 µM [inhibitor, single point]",
OC(CN1C2=NCCN2c2ccccc21)c1ccc2c(c1)OCO2 (centres undefined),"inconclusive: 22.4 µM [inhibitor, single point]",
Cc1cc(OCCN2CCCCCC2)ccc1[N+](=O)[O-],"inconclusive: 1.78 µM [inhibitor, full curve]",
CC(C)Cc1nc2ccc(N)cc2[nH]1,,inactive: 12.1%
Cc1ccc(S(=O)(=O)c2cccc(S(=O)(=O)N3CCCC3)c2)cc1S(=O)(=O)N1CCCC1,active: 15.8 µM,
COc1cc(OC)cc(-c2c(-c3cccs3)c3cc(-c4ccc(CN5CCOCC5)cc4)ccc3n2C)c1,"inconclusive: 11.2 µM [inhibitor, partial curve, poor fit]",
CCOC(=O)c1sc(-c2cccc([N+](=O)[O-])c2)cc1N,"inconclusive: 11.2 µM [inhibitor, single point]",
C=C[C@@H]1c2cccc(C)c2N(S(=O)(=O)c2ccc(C)cc2)[C@H](c2ccccc2)C1(C#N)S(=O)(=O)c1ccccc1 (some centres undefined),,inactive: -22.5%
CCOC(=O)Cc1csc(NC(=O)Nc2ccc(Cl)cc2)n1,active: 11.2 µM,

Structure (SMILES),Potency,"activity change, negative = inhibition"
CN(C)c1nc(SCC(=O)Nc2ccccc2)nc(N2CCOCC2)n1,"inconclusive: 2.82 µM [inhibitor, partial curve]",
O=C(Nc1nc2ccccc2[nH]1)c1cccc([N+](=O)[O-])c1,,inactive: -25.8%
Cc1ccc(S(=O)(=O)N2CCN(C(=O)COC(=O)CC(C)c3ccccc3)CC2)c(C)c1 (centres undefined),,inactive: -14.1%
CCN(CC)S(=O)(=O)c1cccc(NC2=NCC(C)S2)c1 (centres undefined),"inconclusive: 22.4 µM [inhibitor, single point]",
C/C(=N\NC(=O)c1ccc(NS(=O)(=O)c2cccs2)cc1)c1ccc(C(C)(C)C)cc1,active: 7.08 µM,
N#CCCCn1c(-c2ccccc2)noc1=O,,inactive: 7.52%
Cc1ccc(S(=O)(=O)N2CCOCC2)cc1NC(=O)COC(=O)c1ccc(Br)cc1,,inactive: 18.6%
Cc1cc(C)cc(NC(=O)N2c3ccccc3NC(=O)CC2C)c1 (centres undefined),,inactive: 12.6%
O=C(CCNC(=O)c1ccc([N+](=O)[O-])cc1)Nc1ccc(Cl)c(S(=O)(=O)N2CCOCC2)c1,"inconclusive: 22.4 µM [inhibitor, partial curve]",
CC(=O)c1ccc(NC(=O)c2cccc(NC(=O)c3ccccc3)c2)cc1,"inconclusive: 31.6 µM [inhibitor, single point]",
Cc1ccc(N(C(=O)c2ccc3c(c2)OCO3)C2C=CS(=O)(=O)C2)cc1 (centres undefined),,inactive: 3.61%
Cc1cnc(CN(C)Cc2c(C(=O)N3CCc4ccccc4C3)nc3ccc(Cl)cn23)[nH]1,"inconclusive: 12.6 µM [inhibitor, single point]",
CCCOc1ccc(C(=O)Nc2cc(S(=O)(=O)N3CCOCC3)ccc2N2CCOCC2)cc1,"inconclusive: 35.5 µM [inhibitor, partial curve]",
COC(=O)c1cc(S(=O)(=O)Nc2cccc(C)c2C)cn1C,"inconclusive: 22.4 µM [inhibitor, single point]",
NS(=O)(=O)c1ccc(N=Nc2c(=O)[nH]n3c(=O)c4c([nH]c23)CCCC4)cc1,"inconclusive: 3.16 µM [inhibitor, partial curve]",
CC(C)c1nc(SCC(=O)Nc2cccc3ccccc23)n[nH]1,,inactive: -13.1%
CC(=O)N/C(=C\c1ccccc1)C(=O)OC(C)C(=O)NCc1ccccc1 (centres undefined),,inactive: 5.1%
COc1ccc(CCC(=O)Nc2ccc(N3CCOCC3)c(S(=O)(=O)Nc3ccc(OC)cc3)c2)cc1,"inconclusive: 10 µM [inhibitor, partial curve]",
C=CCn1c(SCC(=O)Nc2ccc(O)cc2)nc2sc(CC)cc2c1=O,,inactive: -16.5%
Cc1ccc(-c2cc(C(=O)N3CCOCC3)c3cc(C)ccc3n2)cc1,"inconclusive: 5.01 µM [inhibitor, full curve]",
Cc1ccc2nc3c(cc2c1)c(C)nn3-c1ccccc1,"inconclusive: 11.2 µM [inhibitor, partial curve]",
Cc1ccc(S(=O)(=O)N2CCN(C(=O)CCc3c[nH]c4ccccc34)CC2)cc1,,inactive: -8.71%
Cc1ccc(NC(=O)CSc2nc3ccccc3c(=O)n2CCCC(=O)N2CCCC2)cc1,"inconclusive: 2.51 µM [inhibitor, partial curve]",
